Test results: PubChem BioAssay AID1508624 (National Center for Advancing Translational Sciences (NCATS), 2021)
The whole screen tested about 48,000 compounds, of which about 120 (0.25%) were called active. Another 4% or so got no clear call; they are omitted. Calls follow the shape of the dose curve; as a rule, active = well fitted activation curve with a large enough effect; inconclusive = small, poorly fitted or top-dose-only effect, or another doubt; inactive = no such curve, though single readings can be large or run the other way. The list shows a part of the results.

experiment: Primary qHTS for Identification of Small Molecule Activators of Huntingtin-Antisense Promoter Activity; conditions: HEK293 HTT-AS promoter firefly luciferase reporter, 24 h; series mostly up to 57.5 µM; activity change, positive = activation: at the top concentration; also: nearly all actives have a fitted effect of over 55% in size
How it was run: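 Firefly luciferase readout (Dual-Glo, 10 min RT) after 24 h, 37 °C compound exposure (final up to 57.5 uM) of HEK293 reporter cells cultured 24 h beforehand; PTC124 at 50 uM final as control inhibitor; activity scaled vehicle 0%, zero RLU -100%.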

Structure (SMILES) | activity change, positive = activation
CCOC(=O)c1ccc(NC(=O)c2nc(SC(C)C)ncc2Cl)cc1 | inactive: -4.33%
CCc1ccc(NC(=O)N2c3ccccc3Sc3ccccc32)cc1 | inactive: -28.8%
CCN(Cc1ccccc1)S(=O)(=O)c1ccc2c(c1)CCCN2C(C)=O | inactive: -36.6%
Cc1ccc(C)c(Cn2cnc3c(cnn3-c3ccc(F)cc3)c2=O)c1 | inactive: -2.03%
CCOC(=O)N1CCC2(CC1)OC(=O)C(C)=C2C(=O)NCc1ccc(C)cc1 | inactive: -6.9%
CCNC(=O)c1ccc(CSc2nc3cccnc3n2Cc2ccc(OC)cc2)cc1 | inactive: -16.3%
CCC1CCc2nc3sc(C(=O)Nc4ccc(C)cc4C)c(N)c3cc2C1 (centres undefined) | inactive: -10%
COC(=O)Cn1ccc2cc(S(=O)(=O)N3CCCCCC3)ccc21 | inactive: -24.1%
CCN(C(=O)CN1C(=O)COc2ccc(S(=O)(=O)N3CCOCC3)cc21)c1cccc(C)c1 | inactive: -1.3%
O=C(NCCc1csc(-c2cccc(F)c2)n1)c1ccccc1C(F)(F)F | inactive: -18.1%
COC(=O)c1ccc(NC(=O)Cn2c(-c3nonc3N)nc3ccccc32)cc1 | inactive: 4.24%
CCCc1cnc2c(c1SCC(=O)Nc1c(C)cc(C)cc1C)c(=O)n(C)c(=O)n2C | inactive: -4.92%
Cc1nn(CC(=O)N2CCC(C)CC2)c(=O)c2cc3occc3n12 | inactive: 0.987%
Cc1cccc(-c2nc(CN3CCCC(C(=O)NCc4ccc(Cl)cc4)C3)c(C)o2)c1 (centres undefined) | inactive: -37.1%
CSc1ccc(C(=O)Nc2ccc(-c3nc4ccccc4s3)c(O)c2)cc1 | inactive: -14.1%
CCC(=O)N1CCc2cc(S(=O)(=O)CCC(=O)N3CCN(c4cccc(Cl)c4)CC3)ccc21 | inactive: -30.6%
COc1ccc2c(c1)c1c(c(=O)n(Cc3ccccc3)c(=O)n1CC(=O)NCc1ccc(C)cc1)n2C | inactive: -10.5%
Cc1cc(C)cc(NC(=O)c2oc3ccc4c(c3c2C)C(=O)CC(C)(C)O4)c1 | inactive: -48.2%
COc1ccc(N2CCN(C(=O)CCC(=O)NNc3nc4ccccc4c4nc(C)nn34)CC2)cc1 | inactive: -10.4%
Cc1ccc(C)c(N2CCN(C(=O)c3ccc(Nc4nc5ccccc5n5nnnc45)cc3)CC2)c1 | inactive: 13.8%
Cc1ccc(OCc2nnc(SCC(=O)Nc3ccccc3C(C)C)o2)cc1 | inactive: -2.08%
CCc1ccc(NC(=O)c2ccc3nc(C(C)C)oc3c2)cc1 | inactive: 14.6%
COc1cc(OC)c(NC(=O)Cn2c(=O)cc(C)c3c(C)nn(-c4ccc(C)cc4)c32)cc1Cl | inactive: -10%
CSc1ccc(-c2nc3c(C)cccn3c2Nc2ccc3c(c2)OCCO3)cc1 | inactive: -3.47%

Structure (SMILES) | activity change, positive = activation
CC(=O)Nc1cccc(-c2nnc(SCC(=O)c3cc([N+](=O)[O-])ccc3Br)o2)c1 | inactive: -27.2%
COc1cc(C(c2c(C)[nH][nH]c2=O)c2c(C)[nH][nH]c2=O)ccc1OC(=O)c1ccccc1F | inactive: -1.01% [at 11.5 µM, percent change from vehicle, -100% = no light]
CC(=O)c1cccc(Nc2c3c(nc4nc(-c5cccs5)nn24)CCCC3)c1 | inactive: -16.9%
CC(=O)Nc1ccc(NC(=O)CSc2nnc3c4cc(Br)ccc4n(C)c3n2)cc1 | inactive: 11.4%
CCCC(=O)Nc1cccc(-c2nc3cc(C)c(C)cc3o2)c1C | inactive: -4.24%
COC(=O)c1ccc2oc(=O)c(S(=O)(=O)c3ccc(C)cc3)cc2c1 | inactive: -7.79%
Cc1c(NC(=O)OC[C@@H]2COCCN2)cn2ncnc(Nc3ccc4c(cnn4Cc4cccc(F)c4)c3)c12 | inactive: -35.1%
Cc1ccc(CNC(=O)C2CCN(c3nc4ccc(C)cc4[nH]3)CC2)cc1 | inactive: -8.87%
COc1cccc(C(=O)NC(c2ccc(Cl)cc2)c2cc(Cl)c3cccnc3c2O)c1 (centres undefined) | inactive: -43.7%
FC(F)(F)c1ccc(C2=Nc3ccccc3NC(c3cccs3)=N2)cc1 | inactive: -11.4%
COc1ccc(F)cc1NC(=O)C1CCN(c2nc(-c3ccc(OC)c(OC)c3)no2)CC1 | inactive: 28.4%
Cc1ccc(-n2nc(C)c3c(C)cc(=O)n(CC(=O)NCc4ccc(OC(C)C)cc4)c32)cc1 | inactive: -23.3%
COc1ccc(Nc2ncc(C(=O)Nc3cc(C)ccc3OC)c3ccccc23)cc1 | inactive: -23.4%
Cc1ccc2c(c1)c1c(c(=O)n(-c3ccccc3C)c(=O)n1Cc1ccccc1F)n2C | inactive: -22.9%
COc1ccc(NC(=O)CCc2c(C)nc3c(-c4ccccc4)c(C)nn3c2C)cc1Cl | inactive: -30.3%
Cn1c(C(=O)NCc2ccc(Cl)cc2)cc2c(=O)n(C)c3ccccc3c21 | inactive: -13.4%
Cc1ccc(Cl)cc1NC(=O)Cn1c(=O)oc2cc(S(=O)(=O)N3CCCCCC3)ccc21 | inactive: -32%
Cc1ccc2nc(NCCN)c3ncc(C)n3c2c1 | inactive: -34.2%
COc1ccc(-c2noc(C(C)NC(=O)c3ccco3)n2)cc1 (centres undefined) | inactive: -35.4%
Cc1ccc(NC(=O)c2ccc(=O)n(CC(=O)Nc3cc(C)cc(C)c3)n2)cc1 | inactive: -5.43%
Cc1cccc2c1-c1sc(C(=O)NCCCN3CCN(c4cccc(Cl)c4)CC3)cc1CO2 | inactive: -41.7%
Cc1ccc(OCC(=O)Nc2c(Cl)ccc3nsnc23)cc1C | inactive: -24%
CCOC(=O)N1CCc2c(sc(NCc3cccs3)c2C(=O)Nc2cc(OC)ccc2OC)C1 | inactive: -16.2%
CC(C)c1ccc(Nc2cc(C(=O)NCc3cccs3)c3ccccc3n2)cc1 | inactive: -13.8%

Structure (SMILES) | activity change, positive = activation
CCOC(=O)c1nnn(C(CC)C(=O)Nc2c(C)cccc2C)c1C(=O)OCC (centres undefined) | inactive: -9.16%
CCN(CC)C(=O)CSc1nnc2[nH]c(=O)cc(C)n12 | inactive: 9.32%
Cc1ccc(NC(=O)N2CCN(c3nnc(C)c4c(C)n(-c5ccccc5)nc34)CC2)c(Cl)c1 | inactive: 3.89%
CCNc1nc(Oc2ccc(OCC(=O)OC)nn2)nc(N2CCOCC2)n1 | inactive: -3.17%
CCOc1ccc(-c2cccc(NS(=O)(=O)c3ccc(Cl)s3)c2)nn1 | inactive: -9.71%
Cc1ccc2c(c1)c1c(c(=O)n(-c3cccc(Cl)c3)c(=O)n1C)n2C | inactive: -10.9%
COc1cc(OC)c(NC(=O)c2cnc(N3CCCC3)nc2C)cc1Cl | inactive: 0.826%
CCSc1ncc(Cl)c(C(=O)Nc2sc(C(C)=O)c(C)c2C(=O)OC)n1 | inactive: 2.3%
O=C(CCc1ccc(O)cc1)c1c(O)cc(O)cc1O[C@@H]1O[C@H](CO)[C@H](O)[C@H](O)[C@H]1O | inactive: -11.9%
C[C@@H](NCc1cc2ccccc2[nH]1)c1cccc2ccccc12 | inactive: -7.67%
COc1ccc(CNC(=O)c2ccc(Sc3ccc(Cl)cc3)c(NC(C)=O)c2)c(OC)c1 | inactive: -35.5%
CCOC(=O)c1c(NC(=O)c2cc3nc(-c4ccc(OC)cc4)cc(C(F)(F)F)n3n2)sc(C)c1C | inactive: -1.97%
CCc1cccc(NC(=O)c2c(C)oc3ncnc(N4CCCCC4)c23)c1 | inactive: -20.2%
O=C1CN(C(=O)COc2ccc(Cl)cc2Cl)C(c2ccc(F)cc2)c2cc(F)ccc2N1 (centres undefined) | inactive: -35.5%
NCCC(O)(P(=O)(O)O)P(=O)(O)O | inactive: 1.17%
COc1ccc(C(=O)c2oc3ccccc3c2NC(=O)c2nc(SC)ncc2Cl)cc1Cl | inactive: 3.64%
CC(C)CCNC(=O)N1CCN(S(=O)(=O)c2ccc3c(ccn3C)c2)CC1 | inactive: -16%
CCOC(=O)c1c(S(=O)(=O)N2CCCC(C(=O)Nc3cc(C)ccc3OC)C2)c(C)n(C)c1C (centres undefined) | inactive: 0%
CCOc1ccc(CCNC(=O)CCc2cn(Cc3ccc(C)cc3)c3ccccc23)cc1 | inactive: -23.6%
CCCCNC(=O)CCn1c(=O)c2ccccc2n(Cc2cc(C)ccc2C)c1=O | inactive: -5.08%
COc1cccc(C2=NN(C(C)=O)C(c3cn(-c4ccccc4)nc3-c3cccs3)C2)c1 (centres undefined) | inactive: -16.4%
CC1CCN(S(=O)(=O)c2ccc3c(c2)N(CC(=O)N2CCN(c4ccc(Cl)cc4)CC2)C(=O)CO3)CC1 | inactive: -24.6%
CC(C[N+](C)(C)C)OC(N)=O (centres undefined) | inactive
Cc1ccc(C)c(N2CCN(C(=O)c3cc(S(=O)(=O)N4CCCCC4)cn3C)CC2)c1 | inactive: -34.4%

Structure (SMILES) | activity change, positive = activation
COc1ccc2[nH]cc(CCNC(=O)Nc3ccc(F)cc3)c2c1 | inactive: -16.5%
CCCC(=O)Nc1nnc(SCc2cc(=O)c3cc(C)ccc3[nH]2)s1 | inactive: -29.2%
O=C(c1ccc(CSc2nc3ccncc3n2Cc2ccccc2F)cc1)N1CCCCCC1 | inactive: -13.2%
CC(C)S(=O)(=O)c1oc(-c2ccc(F)cc2)nc1S(=O)(=O)c1ccc(F)cc1 | inactive: -94.8%
Cc1cccc(OCC(=O)N(Cc2cccc(Cl)c2)Cc2ccco2)c1C | inactive: -26.7%
COc1ccc2cc(-c3cn4c(n3)sc3cc(F)ccc34)c(=O)oc2c1 | inactive: 6.19%
Cc1ccc(S(=O)(=O)c2nc(-c3ccccc3)oc2N2CCCCCC2)cc1 | inactive: -24%
COc1ccc(/C=C/c2onc(C)c2S(=O)(=O)N2CCC(C(=O)N3CCC(C)CC3)CC2)cc1 | inactive: -14.5%
Cc1ccccc1CSc1nc(-c2ccccc2)nc2c1Cc1c(CO)cnc(C)c1O2 | inactive: -6.85%
COc1cccc(C(=O)NCC(c2ccc(N(C)C)cc2)N2CCOCC2)c1OC (centres undefined) | inactive: 7.6%
Cn1c(SCC(=O)Nc2ccc(F)cc2)nc2c([nH]c3ccccc32)c1=O | inactive: -7.1%
CN(C)C(=O)c1ccc2c(c1)N(CC(=O)NCc1ccc(F)cc1)C(=O)C1CCCCN21 (centres undefined) | inactive: -4.4%
CCN(C(=O)c1cc(S(=O)(=O)N2CCOCC2)cn1C)c1ccc(OC)cc1 | inactive: -6.15%
Cc1ccc(NC(=O)C(Cc2ccccc2)NS(=O)(=O)c2ccc3c(c2)c(=O)n(C)c(=O)n3C)cc1 (centres undefined) | inactive: -11%
Cc1ccc(CN2C(=O)c3ccccc3S(=O)(=O)c3ccc(C(=O)OCC4CCCO4)cc32)cc1 (centres undefined) | inactive: -18.2%
Cn1cc(C(=O)O)c(=O)c2cc(S(=O)(=O)N3CCCCC3)ccc21 | inactive: -6.38%
CCCC(=O)Oc1c(Sc2ccc(Cl)cc2)c(C)nn1-c1ccccc1 | inactive: -29.9%
Cc1cccn2c(=O)c3cc(C(=O)NCCc4ccc(S(N)(=O)=O)cc4)n(C)c3nc12 | inactive: -24.4%
COc1ccc(OC)c(C2C(C(N)=O)=C(C)Nc3nc(-c4cccc(Cl)c4)nn32)c1 (centres undefined) | inactive: -9.69%
CC(C)(C)c1ccc(OCC(=O)N(Cc2ccco2)Cc2ccccc2F)cc1 | inactive: -31.2%
COc1cc(OC)cc(-c2nnc(SCC(=O)N3CCC(C)CC3)o2)c1 | inactive: -15.2%
COc1ccc(CCNC(=O)CCn2c(=O)c3ccccc3n(CC(=O)Nc3cccc(C)c3)c2=O)cc1OC | inactive: -8.28%
